This is one part of the list. The list includes weakly bound sequences.
What follows are sequences tested against MaxL homodimer (UniProt P61244) (assay: universal protein-binding microarray (PBM)). Conditions: PBS-based mixture, 10 nM His-tagged protein dimer, 2% milk, 200 ng/uL BSA, 50 ng/uL salmon testes DNA, 0.02% TX-100; detection with Alexa 488 anti-His …; high values mean tight binding; most listed sequences are background and not binding sites; double strand, one strand shown.
Sequence of UniProt P61244 (P61244 whole entry): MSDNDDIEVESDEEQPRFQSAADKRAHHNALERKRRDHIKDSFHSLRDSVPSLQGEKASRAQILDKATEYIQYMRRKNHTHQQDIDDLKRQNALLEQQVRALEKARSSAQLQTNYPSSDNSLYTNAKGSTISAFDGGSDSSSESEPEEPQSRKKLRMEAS

Row | Sequence | binding signal (normalized occupancy)
1 | CACTGAGG | 0.0721
2 | CGCTGCAC | 0.0743
3 | ATGGTAGC | 0.0821
4 | AATGCCTG | 0.0727
5 | AAACTTAC | 0.0738
6 | AGGCGGAC | 0.0697
7 | TACTCGAA | 0.0713
8 | AACTGTTC | 0.0691
9 | AAGAGACT | 0.072
10 | AGGGTTAG | 0.08
11 | ATCATTGC | 0.0812
12 | ACTACCTA | 0.0763
13 | AGAGTCCA | 0.0717
14 | TCGGACCA | 0.0693
15 | GGAAGATA | 0.0808
16 | AACTGCCA | 0.0754
17 | ATTGGTCC | 0.0741
18 | CAGTAGCA | 0.0711
19 | ATCCCAAG | 0.0746
20 | TCGAAAAA | 0.0763
21 | AATACACC | 0.0826
22 | GAATACCA | 0.0761

Row | Sequence | binding signal (normalized occupancy)
23 | ATATTGGA | 0.088
24 | AATGGCCG | 0.0718
25 | GCATCATA | 0.0881
26 | GCGATGAA | 0.0786
27 | ACGAACGT | 0.0781
28 | CATTTTAG | 0.0766
29 | ATGAAGCG | 0.0749
30 | ATCCATAC | 0.0815
31 | GTCTGGCA | 0.0715
32 | AAGTTGTA | 0.0716
33 | CGATGTAG | 0.0791
34 | AGAACTGG | 0.066
35 | CGGATCAG | 0.0697
36 | CCCACGCG | 0.148
37 | ACCCATGG | 0.0853
38 | ACCACGGA | 0.0736
39 | ACCGCTAA | 0.0708
40 | GAGCATAA | 0.0797
41 | CGAGTCTC | 0.0699
42 | GTTACTCA | 0.0776
43 | CTAACTCC | 0.0699
44 | GGATATCC | 0.0758

Row | Sequence | binding signal (normalized occupancy)
45 | CAGGTGTA | 0.0957
46 | AGAACAAA | 0.0694
47 | ACGTGGGA | 0.0998
48 | AACAGATC | 0.0758
49 | GAATCCGA | 0.0696
50 | AGGTCACT | 0.0721
51 | TACCACTA | 0.0786
52 | ATGTTATA | 0.0873
53 | ATAATGGG | 0.0788
54 | ATAGAAAT | 0.078
55 | ACTGTCTC | 0.075
56 | TACGTCGA | 0.0753
57 | CACATCAA | 0.0801
58 | GTTCTCAA | 0.0761
59 | AGCTAAGG | 0.0679
60 | AAGAAAGC | 0.071
61 | TGAGAAAA | 0.0784
62 | GATATCAC | 0.0837
63 | CGAGATCG | 0.0689
64 | CCTTCGTC | 0.0764
65 | GCTATAAC | 0.0813
66 | AGCTGCAC | 0.0777

Row | Sequence | binding signal (normalized occupancy)
67 | ACGGGGAC | 0.0795
68 | GAGGTAAC | 0.077
69 | TACTGCGA | 0.0752
70 | TTATGCAA | 0.0783
71 | CGCGGTAC | 0.0731
72 | GGATTAAC | 0.0813
73 | CAATATGC | 0.0798
74 | ATTCGGAG | 0.0698
75 | CATGACTC | 0.0838
76 | CATCGCGC | 0.0696
77 | AAATTAAG | 0.0754
78 | ATCCGCAC | 0.085
79 | GTGGCGAA | 0.0773
80 | AAAGAATA | 0.0779
81 | GGTACCCA | 0.0727
82 | AATACAAT | 0.0764
83 | TACCCTGA | 0.0756
84 | CGGTCGTA | 0.0694
85 | GGCATACC | 0.0768
86 | CGACTCAA | 0.0754

— publication PMC4242493
